Here are results for 45 molecules from PMC4336329 (PLoS ONE, 2015).

Hit rate of the full screen: of about 310,000 compounds, about 2,200 (0.71%) showed an effect of 50% or more. The effect is printed as a negative number. Some of the results follow.

The target in this test is human ether-à-go-go-related gene (hERG) potassium channel (human, UniProt Q12809). Briefly: primary screen, population patch clamp on CHO cells stably expressing hERG.
Sequence of human ether-à-go-go-related gene (hERG) potassium channel (Q12809 whole entry, looked up): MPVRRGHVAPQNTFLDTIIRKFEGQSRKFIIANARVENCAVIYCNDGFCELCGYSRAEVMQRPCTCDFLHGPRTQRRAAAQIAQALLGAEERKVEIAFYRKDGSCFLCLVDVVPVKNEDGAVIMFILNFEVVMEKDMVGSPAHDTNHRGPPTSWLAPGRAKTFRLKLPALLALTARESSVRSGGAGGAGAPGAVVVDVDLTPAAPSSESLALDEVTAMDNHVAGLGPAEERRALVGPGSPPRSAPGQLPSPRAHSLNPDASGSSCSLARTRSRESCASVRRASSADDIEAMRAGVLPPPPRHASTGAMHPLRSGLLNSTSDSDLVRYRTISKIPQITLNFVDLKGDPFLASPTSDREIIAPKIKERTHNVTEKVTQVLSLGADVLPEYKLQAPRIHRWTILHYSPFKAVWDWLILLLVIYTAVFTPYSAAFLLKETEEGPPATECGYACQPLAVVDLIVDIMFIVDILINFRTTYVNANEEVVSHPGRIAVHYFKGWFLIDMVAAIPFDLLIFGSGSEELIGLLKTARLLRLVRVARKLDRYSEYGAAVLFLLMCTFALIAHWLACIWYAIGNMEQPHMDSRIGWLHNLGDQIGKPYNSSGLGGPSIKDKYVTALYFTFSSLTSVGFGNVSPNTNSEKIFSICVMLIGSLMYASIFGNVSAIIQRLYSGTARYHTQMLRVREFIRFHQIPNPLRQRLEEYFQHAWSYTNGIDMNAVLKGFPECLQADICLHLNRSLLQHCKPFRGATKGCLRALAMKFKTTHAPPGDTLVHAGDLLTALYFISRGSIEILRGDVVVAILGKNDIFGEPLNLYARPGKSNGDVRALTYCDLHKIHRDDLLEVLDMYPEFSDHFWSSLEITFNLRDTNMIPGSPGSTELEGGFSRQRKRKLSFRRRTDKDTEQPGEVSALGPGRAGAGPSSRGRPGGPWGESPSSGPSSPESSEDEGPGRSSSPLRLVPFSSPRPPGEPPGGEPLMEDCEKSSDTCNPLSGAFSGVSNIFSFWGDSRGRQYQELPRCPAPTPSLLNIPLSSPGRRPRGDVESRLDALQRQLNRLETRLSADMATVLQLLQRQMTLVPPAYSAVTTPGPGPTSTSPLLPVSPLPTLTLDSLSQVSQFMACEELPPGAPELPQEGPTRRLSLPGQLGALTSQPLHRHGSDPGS
For `Cc1csc(=O)n1CCC(=O)OCC(=O)NCc1ccc(Cl)cc1Cl`, the “hERG current change (%, negative = inhibition) at 1uM” value stood at 7.68%.

For `CCOC(=O)Cn1c(=O)oc2ccc(C)cc21`, the “hERG current change (%, negative = inhibition) at 1uM” value is given as 7.34%.

Turning to `COC(=O)c1cc(Br)c(=O)n(Cc2ccncc2)c1`, the “hERG current change (%, negative = inhibition) at 1uM” value was 3.89%.

For the molecule `Cl.NC(Cc1ccccc1)Cc1ccccc1`, the “hERG current change (%, negative = inhibition) at 1uM” value is recorded as 7.6%.

As for `Nc1ccccc1SCc1ccccc1Cl`, the “hERG current change (%, negative = inhibition) at 1uM” value came to 11.1%.

`O=C(NC(=S)Nc1ccccc1[N+](=O)[O-])c1ccco1`: the “hERG current change (%, negative = inhibition) at 1uM” value was 11%.

For `N#C/C(=C(/O)CSc1ccccn1)c1nc2ccccc2s1`, the “hERG current change (%, negative = inhibition) at 1uM” value amounted to 3.25%.

Turning to `CC(=O)Nc1ccc(NC(=O)C(C)OC(=O)CCCOc2ccc(Cl)cc2C)cc1` (stereo not drawn), the “hERG current change (%, negative = inhibition) at 1uM” value is reported as 17.7%.

Consider `O=C(c1ccc([N+](=O)[O-])s1)N1CCN(c2ccccn2)CC1`, for which the “hERG current change (%, negative = inhibition) at 1uM” value is recorded as 11%.

In the case of `Cc1ccc2cc(CN(CCCN(C)C)C(=O)NCc3ccccc3)c(=O)[nH]c2c1C`, the “hERG current change (%, negative = inhibition) at 1uM” value was -5.18%.

Turning to `CCOC(=O)c1c(S(=O)(=O)NCCc2cccs2)c(C)n(C)c1C`, the “hERG current change (%, negative = inhibition) at 1uM” value came out at 6.98%.

For `CC(=O)c1cc2c(cc1NC(=O)c1cccc(S(=O)(=O)N3CCN(C)CC3)c1)OCO2`, the “hERG current change (%, negative = inhibition) at 1uM” value came to 12.7%.

Consider `Fc1ccc(N2N=C(c3cccs3)CC2c2ccco2)c(F)c1` (stereo not drawn), for which the “hERG current change (%, negative = inhibition) at 1uM” value was found to be 5.91%.

As to `Cc1nn(-c2ccccc2)c(Cl)c1C(=O)NNC(=O)c1ccccc1O`, the “hERG current change (%, negative = inhibition) at 1uM” value was 8.86%.

As to `Cc1ccc(CSc2nc3ccccc3c(=O)n2C)cc1`, the “hERG current change (%, negative = inhibition) at 1uM” value turned out to be 12.1%.

Turning to `COc1cc(/C=C/C(=O)OCC(=O)N2CCCCCC2)ccc1OCC#N`, the “hERG current change (%, negative = inhibition) at 1uM” value came to 1.95%.

For `O=C(COC(=O)C1CC2CCCC(C1)C2=O)NC(=O)c1ccccc1` (stereo not drawn), the “hERG current change (%, negative = inhibition) at 1uM” value is recorded as 4.93%.

With `CCOc1cccc(NC(=O)/C(C#N)=C\c2cn(CC(=O)O)c3ccccc23)c1`, the “hERG current change (%, negative = inhibition) at 1uM” value is 13.9%.

For `C[n+]1cccc(CNC(=O)/C=N/O)c1.[I-]`, the “hERG current change (%, negative = inhibition) at 1uM” value is reported as 10.2%.

Take `C=CCNc1nc(N)c([N+](=O)[O-])c(NC2CCCCC2)n1`: the “hERG current change (%, negative = inhibition) at 1uM” value worked out at 7.67%.

Take `Cn1ccnc1C(O)c1ccc(OCc2ccccc2)cc1` (stereo not drawn): the “hERG current change (%, negative = inhibition) at 1uM” value stood at 7.09%.

Take `COc1ccc(C2Nc3ccccc3C(=O)N2c2ccc(C)cc2)cc1Cn1nnc2ccccc21` (stereo not drawn): the “hERG current change (%, negative = inhibition) at 1uM” value was -5.27%.

For the molecule `Cn1c(=O)c2c(nc(NCCNC(=O)c3ccco3)n2Cc2ccccc2Cl)n(C)c1=O`, the “hERG current change (%, negative = inhibition) at 1uM” value is on record as 11.9%.

On to `CC(C)CC(=O)NC(=S)Nc1ccccc1N1CCCC1`, for which the “hERG current change (%, negative = inhibition) at 1uM” value amounted to 8.11%.

Consider `CSCCC(NC(=O)c1ccccc1)C(=O)OCC(=O)Nc1ccc(C)c(Cl)c1` (stereo not drawn), for which the “hERG current change (%, negative = inhibition) at 1uM” value was -4.63%.

As to `O=C(COc1ccc2ccccc2c1)Nc1nc2ccccc2[nH]1`, the “hERG current change (%, negative = inhibition) at 1uM” value is given as -1.6%.

Consider `Cc1cccc2c1cnn2C(=O)Nc1ccccc1Br`, for which the “hERG current change (%, negative = inhibition) at 1uM” value is given as 17.4%.

Turning to `CCSc1nnc(NC(=O)CSc2nnc(CNC(=O)c3ccc(OC)cc3)o2)s1`, the “hERG current change (%, negative = inhibition) at 1uM” value was 11.6%.

As to `CCOC(=O)N/N=C(\C)c1ccc(C)o1`, the “hERG current change (%, negative = inhibition) at 1uM” value was 15.5%.

For `COc1ccccc1NC(=S)NCc1ccco1`, the “hERG current change (%, negative = inhibition) at 1uM” value is 3.34%.

Regarding `COc1ccc2nc(SCC(=O)NC3CCCc4ccccc43)[nH]c2c1` (stereo not drawn), the “hERG current change (%, negative = inhibition) at 1uM” value stood at 6.8%.

For the molecule `Fc1ccc(NC(=S)NC2CC3CCC(C2)N3Cc2ccco2)cc1` (stereo not drawn), the “hERG current change (%, negative = inhibition) at 1uM” value stood at 3.96%.

Turning to `N#Cc1nc(-c2ccc(F)cc2)oc1N1CCC(C(N)=O)CC1`, the “hERG current change (%, negative = inhibition) at 1uM” value is on record as 5.88%.

Regarding `COc1ccc(/C=N/NC(=O)c2ccccc2OCc2ccccc2)c(OC)c1`, the “hERG current change (%, negative = inhibition) at 1uM” value is -7.53%.

With `O=C(CSc1ncnc2nc[nH]c12)N1CCOCC1`, the “hERG current change (%, negative = inhibition) at 1uM” value came to 6.62%.

Regarding `O=C(CCCCCNC(=O)N1CCn2c1nc1ccccc12)NCc1ccc(F)cc1`, the “hERG current change (%, negative = inhibition) at 1uM” value is 2.46%.

In the case of `COc1ccc(S(=O)(=O)N2CCC(C(=O)NCCC(=O)Nc3nccs3)CC2)cc1`, the “hERG current change (%, negative = inhibition) at 1uM” value was found to be 11.8%.

`Cc1ccccc1NC(=O)C(C)OC(=O)CNS(=O)(=O)c1ccc(C#N)cc1` (stereo not drawn): the “hERG current change (%, negative = inhibition) at 1uM” value is recorded as 9.02%.

For the molecule `CCOC(=O)C(CC)Sc1nc2c(cnn2-c2ccc(F)cc2)c(=O)[nH]1` (stereo not drawn), the “hERG current change (%, negative = inhibition) at 1uM” value worked out at 17.1%.

As to `CCCN(CCC)C(=O)CC(c1ccccc1)c1ccc(C)cc1O` (stereo not drawn), the “hERG current change (%, negative = inhibition) at 1uM” value was -3.4%.

Take `CCCN(C(=O)c1nc2nccc(C)n2n1)c1c(N)n(Cc2ccccc2)c(=O)[nH]c1=O`: the “hERG current change (%, negative = inhibition) at 1uM” value turned out to be 5.88%.

For the molecule `CCOc1ccc(S(=O)(=O)NCCC(=O)OC(C)C(=O)N2CCc3ccccc32)cc1` (stereo not drawn), the “hERG current change (%, negative = inhibition) at 1uM” value was found to be 13.6%.

In the case of `Cc1cccc(Cn2c(SCCO)nc3c2c(=O)n(C)c(=O)n3C)c1`, the “hERG current change (%, negative = inhibition) at 1uM” value is given as -0.143%.

On to `Cn1[nH]c(C(F)(F)F)cc1=O`, for which the “hERG current change (%, negative = inhibition) at 1uM” value came to 4.98%.

For the molecule `CN(C)S(=O)(=O)c1cc(NC(=O)c2ccc(-n3ccnc3)c([N+](=O)[O-])c2)ccc1Cl`, the “hERG current change (%, negative = inhibition) at 1uM” value turned out to be 12.7%.
